From PubChem BioAssay AID493208 (National Center for Advancing Translational Sciences (NCATS), 2011)
Out of some 44,000 compounds screened, about 340 (0.77%) were called active. Roughly 5% stayed inconclusive and do not appear here. Calls come from the whole dose curve; as a rule, active = well fitted inhibition curve with a large enough effect; inconclusive = small, poorly fitted or top-dose-only effect; inactive = flat fitted curve, though single readings scatter. The list shows a part of the results.

Test: Acumen qHTS Assay for Inhibitors of the mTORC1 Signaling Pathway in MEF (Tsc2-/-, p53-/-) Cells: Sytravon;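 note: plate controls were DMSO for no effect and rapamycin for full effect; nearly all actives have a fitted effect of over 50% in size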
Conditions: phospho-rpS6 immunofluorescence/PI, 24 h; series mostly up to 38.3 µM; activity change, negative = inhibition: at the top concentration
Procedure, shortened: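 Tsc2-/-, p53-/- MEFs (empty-vector stable line) in DMEM + 10% FBS were treated with compounds 24 h at 37 degree Celsius, fixed, and immunostained for phospho-rpS6 (Alexa-488) with propidium iodide counterstain. Laser-scanning cytometry gave % positive cells, normalized against 7.5 nM rapamycin and DMSO.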

Activity change, negative = inhibition, inactive:
Cn1c(=O)c(=O)n(C)c2cc(S(=O)(=O)Nc3ccc(Cl)c(C(F)(F)F)c3)ccc21 5.67%, Fc1ccc(Nc2c(-c3ccco3)nc3ccccn23)cc1 -1.47%, Cc1ccc(C2c3[nH]c4ccccc4c3CCN2C(=O)CCc2ccccc2)cc1 (stereo not given) -11.8%, Cc1ccc(NC(=O)C2CCC(CNS(=O)(=O)c3ccc4c(c3)C(C)(C)C(=O)N4C)CC2)cc1 (stereo not given) -8.42%, CC(C)(C)c1ccc(C(=O)N2CCN(Cc3cc(=O)n4nc(-c5ccccc5F)sc4n3)CC2)cc1 -19.1%, CCOc1ccc(CNC(=O)Cc2ccc(NC(=O)N3CCCCc4ccccc43)cc2)cc1OC -9.34%, COc1cc(OC)c(NC(=O)Cn2cnc3nc4c(cc3c2=O)CCCC4)cc1Cl 2.05%, Cc1cc(=O)oc2cc(OCC(=O)Nc3c(C(C)C)cccc3C(C)C)ccc12 10.3%, Clc1ccc(-c2nnn3c2nc(NCc2ccc4c(c2)OCO4)c2ccccc23)cc1 -7.22%, COc1ccc(CCn2c(=O)c3cccnc3n(CC(=O)Nc3c(C)cc(C)cc3C)c2=O)cc1OC -4.64%, CCCc1cc(N2CCN(c3ccc(OC)cc3)CC2)n2cnnc2n1 -9.71%, COc1cc(NC(=O)CCNC(=O)Cn2cnc3ccccc3c2=O)cc(OC)c1OC -0.262%, Cc1cc(C)c(NC(=O)Nc2csc3c2CCCC3)c(C)c1 -2.45%, O=C(CCCCCn1c(=O)[nH]c2ccccc2c1=O)NCc1ccc(Cl)cc1 0.368%, CCC(=O)N1CCc2cc(Br)cc(S(=O)(=O)NCc3ccccc3)c21 -11.6%, COc1ccccc1-c1nc(SCC(=O)Nc2ccc(C)c(C)c2)n[nH]1 -13.9%, CSc1ccc(CCNC(=O)C2CCN(c3ncnc4c3nc3n4CCCCC3)CC2)cc1 2.79%, CCN(CC)C(=O)COc1ccc(-c2nnc(Nc3ccc(OC)c(C(=O)NC)c3)c3ccccc23)cc1 -20.6%, Cc1sc2ncn(CC(=O)N(C)c3cccc(C(F)(F)F)c3)c(=O)c2c1S(=O)(=O)N1CCN(c2ncccn2)CC1 -19.1%, Fc1ccc(-n2ncc3c(N4CCN(c5ccccc5F)CC4)ncnc32)cc1 0%, Cc1cc(=O)oc2c3c(ccc12)OCN(Cc1ccc(Cl)cc1)C3 0.115%, CCc1nn2c(=O)cc(COC(=O)c3ccccc3NC(=O)c3cccs3)nc2s1 0%, CCn1nc(C)c2c(-c3ccccc3)cc(=O)n(C(C)C(=O)NCCc3ccccc3)c21 (stereo not given) 5.73%, CCC1CCCCN1C(=O)Cn1c(=O)n(CCCCCC(=O)NCc2ccccc2Cl)c(=O)c2sccc21 (stereo not given) 0.544%, O=C(NCCc1ccc(Cl)cc1)c1ccc2c(c1)N(Cc1cccc(Cl)c1)C(=O)c1ccccc1S2(=O)=O 0.397%, Fc1ccccc1Nc1ncnc2c1nc1n2CCCCC1 -4.46%, Cc1cccc(CCNC(=O)c2c[nH]c3ccc(S(=O)(=O)Nc4ccccc4F)cc3c2=O)c1 0.551%, COC(=O)c1ccc(NC(=O)CC2C(=O)N(c3cccc(C)c3)C(=O)N2C2CCCC2)cc1 (stereo not given) 0.518%, Fc1ccc(Cn2c(-c3cccc(Br)c3)nc3ccccc32)cc1 -2.65%, CCOc1ccc(CCNC(=O)Cn2nc(CC)n3c(cc4sccc43)c2=O)cc1 0.374%, O=C(NCCc1nc2ccccc2n1CCCOc1ccc(Cl)cc1)C1CCCCC1 4.61%, O=C(Nc1c2c(nn1-c1ccc(Cl)cc1)CS(=O)(=O)C2)c1ccccc1F 16%, Cc1nn2c(C)c(C(=O)NCC(C)c3ccccc3)cnc2c1-c1ccccc1 (stereo not given) 3.63%, COc1ccc(C2NC(=O)N(C)C3=C2C(=O)N(c2ccc(F)cc2)C3)cc1 (stereo not given) -14.9%, COc1ccc(C(=O)Nc2noc3ccccc23)cc1 3.42%, Cc1cccc(NC(=O)CSc2nccn2-c2cccc(Cl)c2)c1C -0.0367%, CCOc1cc(C2c3c(-c4ccccc4O)n[nH]c3C(=O)N2Cc2cccnc2)ccc1O (stereo not given) 3.25%, CCC(C(=O)NCc1ccccc1Cl)n1nc(C)c2sc3ccccc3c2c1=O (stereo not given) 5.07%, Cc1ccc(NC(=O)c2sc(-n3nc(C)c(Cc4ccc5c(c4)OCO5)c3C)nc2C)cc1C -0.415%, O=C(CCCn1c(=O)c2sccc2n(Cc2cccc(Cl)c2)c1=O)NCc1ccc2c(c1)OCO2 -14.7%, CCOC(=O)CN1C(=O)c2cccnc2Oc2ccccc21 -0.82%, Cc1cc(C)cc(NC(=O)CSCc2cc(=O)c3ccc(C)c(C)c3[nH]2)c1 -14.3%, CNS(=O)(=O)c1cn(CC(=O)N2CCN(c3cc(C)ccc3C)CC2)cc1S(=O)(=O)NC -2.38%, O=c1cc(-c2ccccc2)n2c(SCc3cccc([N+](=O)[O-])c3)nnc2[nH]1 -0.85%, COc1ccc(NC(=O)CSc2nc(-c3ccco3)nc3cc(=O)[nH]n23)cc1 -5.44%, CCOc1cc(C(=O)N2CCC(c3ccncc3)CC2)cc(OCC)c1OCC -0.868%, CCOc1ccc(NC(=O)CN2CCN(CC(=O)Nc3ccccc3OCC)CC2)cc1 0.735%, Cc1cc(C(=O)Nc2c(C)nn(Cc3ccc(F)cc3)c2C)no1 3.28%, NC(=O)C1CCN(C(=O)Cn2c(-c3cccs3)cc3ccccc32)CC1 -0.8%, CCCCN(c1ccccc1)S(=O)(=O)c1ccc2c(c1)CC(C)N2C(=O)C1CC1 (stereo not given) -16.8%, CCc1ccccc1Nc1nc2ccccc2n2cnnc12 -11.7%, COc1ccc(CCNC(=O)CCn2c(=O)c3cccn3c3cccnc32)cc1OC 0.774%, CC1CN(S(=O)(=O)c2ccc3c(c2)NC(=O)CC(=O)N3)c2ccccc2O1 (stereo not given) -1.91%, COc1ccccc1-n1nc(-c2ccccc2)c2cnc3cc(C(F)(F)F)ccc3c21 -1.21%, CCOC(=O)c1ccc(NC(=O)COC(=O)c2cn(CC)c3nc(C)ccc3c2=O)cc1 -3.63%, Cc1cccc(C)c1OC(=O)CSc1nnc(-c2cccs2)o1 6.66%, COc1ccc(-c2oc3ncn4nc(-c5ccccc5C)nc4c3c2-c2ccc(OC)cc2)cc1 14.6%, Cc1ccc(C)c(CN2C(=O)c3ccccc3S(=O)(=O)c3ccc(C(=O)N4CCN(c5ccccc5F)CC4)cc32)c1 2.35%, O=S(=O)(Nc1ccc(-c2ccc(N3CCCC3)nn2)cc1)c1cccc(C(F)(F)F)c1 -10.6%, COc1ccc(CNC(=O)CCc2nnc3n(CC(C)C)c(=O)c4ccccc4n23)cc1 0.493%, COc1ccc(C)cc1NS(=O)(=O)c1ccc2[nH]c(=O)c(=O)[nH]c2c1 -13.8%, CCn1ccc2cc(S(=O)(=O)N3CCCN(C(=O)NCCOC)CC3)ccc21 -4.65%, CCS(=O)(=O)N1CCc2cc(C(=O)Nc3cc(C(F)(F)F)ccc3Cl)ccc21 1.85%, COc1cccc(NC(=O)Cn2c(=O)n(CCCCC(=O)NCCc3ccccc3)c(=O)c3ccccc32)c1 5.39%, CCOC(=O)C1=C(CN2CCN(c3cc(C)ccc3C)CC2)NC(=O)NC1c1ccc(Cl)cc1 (stereo not given) -0.61%, O=c1c2ccccc2n(Cc2ccccc2F)c(=O)n1-c1cccc(F)c1 -4.79%, Cc1ccc(C(=O)Nc2onc3c2CCCC3)cc1 -8.34%, O=C(CSc1nnc2ccc3ccccc3n12)c1ccc(F)cc1 -9.34%, COc1ccccc1CNC(=O)c1cnc2sc(N3CCCCCC3)nn2c1=O -18.1%, Cc1cccc(NC(=O)c2ccc(-c3nc(CSc4ccccc4)c(C)o3)cc2)c1C 0.613%, Cc1nc2sc(C(N)=O)c(N)c2c(-c2ccc(Br)cc2)c1C(=O)Nc1ccc(Cl)cc1 0%, CSc1ccc(CNC(=O)CCn2c(=O)c3cccn3c3ccc(F)cc32)cc1 0.0257%, Cc1ccccc1C(=O)Nc1ccc2c(c1)CCCN2C(=O)c1cccs1 0%, COc1ccc(C(=O)N2CCC(c3nc(-c4ccc(S(=O)(=O)N5CCCC5)cc4)no3)CC2)cc1 -5.35%, COC(=O)c1cc2occc2n1Cc1cccc(C)c1 5.26%, COc1ccc(C(=O)Nc2ccc(-c3nc4ccccc4s3)cc2C)cc1Cl -6.14%, COCCNC(=O)CCN1C(=O)c2cccnc2Oc2ccc(C)cc21 -9.28%, NC(=O)Cn1c(=O)n(CCCCCC(=O)NCc2ccccc2)c(=O)c2sccc21 6.12%, Cc1ccc(-n2nc(C(=O)Nc3ccc(C)c(F)c3)c3c4ccccc4n(C)c3c2=O)cc1 5.8%, CC(=O)Nc1nonc1-c1nnc(SCC(=O)Nc2ccc(C)c(Cl)c2)n1-c1ccccc1 -24.5%, COc1ccc(-n2c(=O)c3ccccc3n(Cc3ccccc3C)c2=O)c(OC)c1 5.8%, CCOc1ccc(C(=O)c2cnc3ccc(Cl)cc3c2S(=O)(=O)c2ccc(C)cc2)cc1 -2.86%, CCc1ccccc1Nc1nc2cc(Cl)c(Cl)cc2nc1-n1nc(C)cc1C 5.86%, Cc1ccc(-n2nc(CO)c(C(=O)NCCCc3ccccc3)n2)cc1 0.759%, CC(=O)Nc1ccc(NS(=O)(=O)c2c(C)nc3sccn3c2=O)cc1 3.74%, Cc1ccc(-n2ncc3c(Nc4ccccc4C)ncnc32)cc1 -5.23%, CCOc1ccc(CNC(=O)C2CCCN(S(=O)(=O)N(C)c3ccc(F)cc3)C2)cc1OC (stereo not given) -2.62%, COc1cccc(Cn2c(NCc3ccc(C)cc3)nc3c2c(=O)n(C)c(=O)n3C)c1 -7.39%, CC(=O)c1ccc(NC(=O)c2ccc(-c3nc(COc4ccc(C)cc4)c(C)o3)cc2)cc1 0.868%, Cc1nn(-c2ccc3nnc(C)n3n2)c(C)c1CCC(=O)Nc1ccc(OC(F)(F)F)cc1 -9.13%, COc1ccc(-c2cn3nc(N4CCCC(C(=O)NCc5ccccc5OC)C4)sc3n2)cc1 (stereo not given) -1.06%, CCOC(=O)c1cnc2c(ccc3ccccc32)c1Nc1ccc(Cl)cc1 4.61%, COC(=O)c1cc(-c2ccc(OC)c(OC)c2)c2c(=O)[nH]c(=O)n(C)c2n1 0.473%, CCC(=O)N1CCc2cc(S(=O)(=O)NC(CC(C)C)C(=O)NCc3ccc(F)cc3)ccc21 (stereo not given) 1.35%, Cc1ccc(NC(=O)Cn2c(=O)n(Cc3nc(C)no3)c(=O)c3cc4c(cc32)OCO4)c(Cl)c1 -5.14%
